Screen size: about 310,000 compounds; about 2,200 (0.71%) showed an effect of 50% or more. Effects have a minus sign here. This is one part of the list.
The molecules below were run against human ether-à-go-go-related gene (hERG) potassium channel (human, UniProt Q12809) (assay: primary screen, population patch clamp on CHO cells stably expressing hERG).
Sequence of human ether-à-go-go-related gene (hERG) potassium channel (Q12809 whole entry, looked up): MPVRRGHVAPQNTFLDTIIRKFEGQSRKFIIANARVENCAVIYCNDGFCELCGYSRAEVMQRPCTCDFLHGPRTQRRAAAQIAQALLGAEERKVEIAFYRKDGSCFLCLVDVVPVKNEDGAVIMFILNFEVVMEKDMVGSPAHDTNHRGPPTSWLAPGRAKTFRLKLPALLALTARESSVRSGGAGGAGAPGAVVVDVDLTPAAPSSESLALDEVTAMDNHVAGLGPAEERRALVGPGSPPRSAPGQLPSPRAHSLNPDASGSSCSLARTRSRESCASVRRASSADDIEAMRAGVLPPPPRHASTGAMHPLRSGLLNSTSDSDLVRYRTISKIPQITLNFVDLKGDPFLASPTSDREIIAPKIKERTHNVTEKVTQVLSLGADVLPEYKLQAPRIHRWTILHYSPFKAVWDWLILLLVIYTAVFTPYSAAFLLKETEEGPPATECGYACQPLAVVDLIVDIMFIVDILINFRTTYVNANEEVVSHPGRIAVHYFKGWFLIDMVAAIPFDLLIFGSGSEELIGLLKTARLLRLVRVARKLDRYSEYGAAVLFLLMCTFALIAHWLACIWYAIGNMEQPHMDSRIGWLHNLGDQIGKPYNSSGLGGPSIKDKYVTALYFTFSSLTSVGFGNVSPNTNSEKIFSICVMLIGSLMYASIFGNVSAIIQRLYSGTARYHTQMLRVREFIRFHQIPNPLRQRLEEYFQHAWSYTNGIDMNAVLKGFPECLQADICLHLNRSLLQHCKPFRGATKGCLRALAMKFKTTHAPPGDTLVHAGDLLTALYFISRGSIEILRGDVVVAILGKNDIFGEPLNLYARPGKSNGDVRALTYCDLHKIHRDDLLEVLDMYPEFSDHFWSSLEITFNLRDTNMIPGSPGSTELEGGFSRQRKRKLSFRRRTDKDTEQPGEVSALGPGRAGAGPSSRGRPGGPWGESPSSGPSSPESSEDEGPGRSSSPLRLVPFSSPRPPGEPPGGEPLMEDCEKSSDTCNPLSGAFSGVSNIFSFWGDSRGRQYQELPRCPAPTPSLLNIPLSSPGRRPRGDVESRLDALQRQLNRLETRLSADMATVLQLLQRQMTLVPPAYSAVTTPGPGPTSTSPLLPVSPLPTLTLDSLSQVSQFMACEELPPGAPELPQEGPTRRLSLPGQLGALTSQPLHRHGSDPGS

| SMILES | hERG current change (%, negative = inhibition) at 1uM |
| --- | --- |
| CCNC(=O)CC1SC(=Nc2cccc3ccccc23)N(C)C1=O (stereo not drawn) | 10.9% |
| Cc1c(Cl)ccc2sc(NC(=O)C3CC3)nc12 | 16.2% |
| Cc1nnc(NN2CCOCC2)[nH]c1=O | 19.3% |
| CCN1CCN(S(=O)(=O)c2ccc(Cl)c(C(=O)NC(C)c3ccccc3Cl)c2)CC1 (stereo not drawn) | 5.99% |
| O=S(=O)(c1ccc(Cl)cc1Cl)n1ccc2cccnc21 | 13.2% |
| COc1ccc(-c2nnc(CSc3nc4ccccc4c(=O)n3C)o2)cc1OC | 13.8% |
| Cc1ccc(NC(=S)NCC(C)CSc2ccc(Cl)cc2)cc1 (stereo not drawn) | 4.54% |
| Cc1ccc(NC(=O)CN2CCCN(S(=O)(=O)c3ccc(Br)s3)CC2)cc1 | -35.4% |
| COCCCN1C(=O)c2ccc(C(=O)O)cc2C1=O | 0.4% |
| O=C(Nc1nnc(SCc2ccccc2)s1)c1cccc([N+](=O)[O-])c1 | 4.69% |
| CC(=O)c1ccc2c(c1)CC(C)C(=O)N2C (stereo not drawn) | 10.8% |
| O=S(=O)(NCC1CCN(c2ccc(S(=O)(=O)N3CCOCC3)cc2)CC1)c1ccc(F)cc1 | 11.8% |
| CSc1oc(-c2ccc(F)cc2)nc1S(=O)(=O)c1ccc(F)cc1 | 4.6% |
| [N-]=[N+]=CC(=O)CC(c1ccccc1)N1C(=O)c2ccccc2C1=O (stereo not drawn) | 14% |
| COc1cc(NC(=O)CN2C(=O)NC(C)(CC(C)C)C2=O)cc(OC)c1 (stereo not drawn) | 8.98% |
| CCOC(=O)CC1=NC(=O)CS1 | 10.8% |
| CCN(CC)CC(C)CNC(=O)C1(O)c2ccccc2NC(=O)N1c1ccc(Cl)c(Cl)c1 (stereo not drawn) | 9.43% |
| CCCc1cc(=O)oc2cc(OCc3nn[nH]n3)ccc12 | 9.28% |
| CCc1noc(C)c1C(=O)N1CCCC(N2CCN(c3cccc(Cl)c3)CC2)C1 (stereo not drawn) | 13.7% |
| Cc1cc(C)cc(NC(=O)CSc2nc3ccccc3nc2N2CCCCC2)c1 | 10% |
| CC(=O)Nc1cccc([As](=O)(c2cccc(NC(C)=O)c2)c2cccc(NC(C)=O)c2)c1 | 2.73% |
| CC(=O)Nc1ccc(/C(C)=N/NS(=O)(=O)c2ccc(C)cc2)cc1 | 12.3% |
| N#Cc1c(NC(=S)NC(=O)Cc2cccs2)sc2c1CCCCC2 | 2.72% |

| SMILES | hERG current change (%, negative = inhibition) at 1uM |
| --- | --- |
| COc1cc(CCC(=O)NCCc2ccc(F)cc2)cc(OC)c1OC | 18.3% |
| CN1CCc2c1nc1ccccc1c2N=C1CCCN1Cc1ccccc1.Cl | 13.9% |
| COc1ccc(C2SCCN2C(=S)Nc2cccc(Cl)c2)cc1 (stereo not drawn) | 10.4% |
| CCOC(=O)C1CCCN(CCSc2ccc(C)cc2)C1.Cl (stereo not drawn) | 9.49% |
| CCOC(=O)CN1C(=O)CN(c2ccc(C)cc2)C1=O | 11% |
| Nc1ccc(-n2cc(-c3ccccc3)[nH]c2=S)cc1 | 16% |
| O=C(NCc1ccccc1)C(c1ccccc1)N(Cc1cccs1)C(=O)c1cnccn1 (stereo not drawn) | -2% |
| Cc1c(C(=O)O)oc2ccc(S(=O)(=O)NCc3ccc(F)cc3)cc12 | 1.84% |
| CCOC(=O)C(=O)N/N=C/c1ccco1 | 14.9% |
| O=C(CCSc1nc2ccccc2s1)N/N=C/c1c(O)ccc2ccccc12 | 9.91% |
| NC(=O)C1CCCN(CC(=O)Nc2cc(S(=O)(=O)N3CCOCC3)ccc2N2CCCC2)C1 (stereo not drawn) | -0.144% |
| CCOC(=O)c1cnc(-n2nc(C)cc2C)nc1NNc1cc(-c2ccccc2)nc(C)n1 | 17.4% |
| CCN(C(=O)CN1C(=O)S/C(=C\c2ccc(F)cc2)C1=O)C1CCS(=O)(=O)C1 (stereo not drawn) | 13% |
| Cc1c(C(=O)O)sc2nc(-c3cccs3)cc(C(F)(F)F)c12 | 17.3% |
| CCCn1c(SCC(=O)Nc2ccccc2Oc2ccccc2)n[nH]c1=O | 3.49% |
| CC(=O)N1CCC2(CC1)NC(=O)N(c1ccccc1)N2 | 9.53% |
| CCN(Cc1ccncc1)Cc1nc(-c2ccc(C(=O)OC)cc2)no1 | -0.646% |
| O=C(COC(=O)c1ccccc1)NCC1CCCO1 (stereo not drawn) | -1.28% |
| Cc1cc(C)c(S(=O)(=O)N2CCN(C(=O)N3CCCCC3)CC2)c(C)c1 | 4.89% |
| CCOC(=O)Cc1csc(NC(=O)Cc2ccc(C)cc2)n1 | 5.76% |
| Cc1ccc(S(=O)(=O)Oc2ccccc2/C=N/NC(=O)c2nn(C)cc2[N+](=O)[O-])cc1 | 10.2% |
| Cc1c(NC(=O)c2cccs2)c(=O)n(-c2ccccc2)n1C | 12.9% |
| O=S(=O)(/C=C/c1ccccc1)NC1CCCCCC1 | 14.5% |

| SMILES | hERG current change (%, negative = inhibition) at 1uM |
| --- | --- |
| COc1ccc(C2=NOC(C(=O)Nc3ccc4c(c3)OCO4)C2)cc1 (stereo not drawn) | 13% |
| COc1ccc(C(=O)NCc2nnc(SCC(=O)N3CCC(C)CC3)o2)cc1 | 8.68% |
| CN(C)Cc1c(C(=O)N/N=C/c2ccncc2)nnn1-c1nonc1N | 10.9% |
| COC(=O)C1=C(O)/C(=C\c2cc(C)n(-c3ccccc3F)c2C)N=C1C | 15% |
| COc1ccc(Cc2nc(-c3ccccc3)no2)cc1 | 11.8% |
| Cc1cc(Br)ccc1NC(=O)CNC(=O)CSc1n[nH]c(N)n1 | 12.3% |
| COc1ccc(-n2c(C)nc3sc4c(c3c2=O)CCCC4)cc1 | 11.7% |
| COc1ccc(CNC(=O)CN(C)Cc2ccc(SC)cc2)cc1 | -31.2% |
| CCCNC(=S)Nc1ccccc1 | 16.2% |
| O=C(O)Cc1sc(NCc2ccco2)nc1-c1ccccc1 | -7.64% |
| Cc1cc(NC(=O)c2ccco2)c(=O)n(Cc2c(F)cccc2Cl)c1 | 8.57% |
| Cc1ccc(OCC(=O)N(Cc2ccccc2)c2c(N)n(Cc3ccccc3)c(=O)[nH]c2=O)c(C)c1 | 12% |
| CCOC(=O)Cn1cnc2c(nnn2-c2ccc(F)cc2)c1=O | 8.58% |
| CCOC(=O)c1oc2ccccc2c1NC(=O)CN1CCN(C)CC1 | -31.4% |
| COc1cc(-c2cn(S(=O)(=O)c3cccc4nsnc34)nc2N)cc(OC)c1OC | -1.03% |
| CSc1nnc2n(Cc3ccccc3)c(=O)c3c4c(sc3n12)COC(C(C)C)C4 (stereo not drawn) | 3.43% |
| C(=N\NC1=Nc2cccc3cccc1c23)/c1ccccc1 | 15.2% |
| CCn1c2ccccc2c2nnc(SCCCn3c(=O)[nH]c4ccccc43)nc21 | 5.08% |
| CC(C)NC(=O)COC(=O)c1ccc(NS(=O)(=O)c2ccc3c(c2)OCCO3)cc1 | 12.2% |
| CCOc1ccc(NC(=O)COC(=O)CNC(=O)c2ccc(-c3ccccc3)cc2)cc1 | 6.44% |
| Cc1cc(C(=O)Nc2ccc(Cl)c(S(=O)(=O)N3CCOCC3)c2)c2ccccc2n1 | 9.36% |
| COc1ccc(S(=O)(=O)N2CCCC(C(=O)NCc3ccc(F)cc3)C2)cc1 (stereo not drawn) | 11.6% |
| CC1CCN(S(=O)(=O)c2ccc(C(=O)Nc3nnc(-c4ccncc4)o3)cc2)CC1 | 7.8% |

| SMILES | hERG current change (%, negative = inhibition) at 1uM |
| --- | --- |
| CCNC(=O)/C=C1\NC(C)(C)Cc2c1ccc1ccccc21 | 12.3% |
| O=C(Nc1ccccc1)N(Cc1ccc(Cl)cc1)CC(O)C(F)(F)F (stereo not drawn) | 9.35% |
| O=[N+]([O-])c1ccc(Nc2nc(NC3CCCCC3)nc(N3CCCC3)n2)cc1 | 11.6% |
| CN1CC[C@@]2(C)c3cc(O)ccc3N(C)C2O1 (stereo partly drawn) | 4.17% |
| Fc1ccc(Cn2nnnc2C(c2cccs2)N2CCN(C3CCCCC3)CC2)cc1 (stereo not drawn) | -51.6% |
| O=C(CSc1nncc(=O)[nH]1)Nc1cccc([N+](=O)[O-])c1 | 0.998% |
| COc1cc(/C=N/n2c(C3CCCCC3)n[nH]c2=S)cc(OC)c1O | 19.3% |
| COc1ccc(CCN(C)C(=O)C2CC(=O)N(Cc3ccc(C)cc3)C2)cc1OC (stereo not drawn) | 6.14% |
| Cc1cc(O)c2c3c(c(=O)oc2c1)CCC(C)C3 (stereo not drawn) | 10.1% |
| CN(C)C(=Nc1ccccc1)P(=S)(N(C)C)N(C)C | 12.3% |
| CCOc1cc(/C=N\Nc2nc(-c3ccc(C)cc3)c(NC(C)=O)s2)ccc1O | 1.33% |
| COc1ccccc1NC(=O)C1C2C=CC3(CN(Cc4cccnc4)C(=O)C13)O2 (stereo not drawn) | 14.4% |
| Cc1ccccc1-c1cc2nc(-c3ccc([N+](=O)[O-])cc3)cc(=O)n2[nH]1 | 16.9% |
| O=c1c(C=Nc2ccc(Cl)cc2)c[nH]n1-c1cccc(Cl)n1 | 11.3% |
| COC(=O)CSCc1nc2ccccc2[nH]c1=O | 14.6% |
| CC1(C)OC(=O)C=C(CC2NS(=O)(=O)OC3CCCCC23)O1 (stereo not drawn) | 6.9% |
| O=C1CC(c2ccccc2)CN1 (stereo not drawn) | 15.1% |
| COc1ccc(S(=O)(=O)NCCC(=O)NC2CCCCCCC2)cc1 | -10.3% |
| CC(C)n1nc(C(=O)Nc2nnc(SCc3c(Cl)cccc3Cl)s2)c2ccccc2c1=O | 2.74% |
| O=C(CC1CC2CCC1C2)NC1CCCCCCC1 (stereo not drawn) | 11.9% |
| O=C(OCc1nnc(-c2ccc(Cl)cc2)o1)C12CC3CC(CC(O)(C3)C1)C2 | 2.61% |

Source: paper PMC4336329 (PLoS ONE, 2015)
